For one test, the target named is GST-EPI (UniProt P04626). Nature of the test: ELISA, GST-EPI coated, 293T supernatant, reference 293T-expressed ChA21. (An ELISA detects its analyte on a solid surface through an enzyme-linked reagent.)
The target of test [1] is T1, Recombinant Human ErbB2/Fc Chimera (human, UniProt P04626 partial chain).
T1 construct: Bought reagent; also called 抗原Her2; R and D Systems 1129-ER; not shown: Fc part (and any linker or tag) of the bought chimera
Briefly: SPR, Biacore 3000, ErbB2/Fc chimera immobilised on CM-5 chip, antibody injected. For orientation: In SPR one partner is held on a chip, and binding of the other changes the refractive index at the surface.

B1: 人源化抗体H2-1 (antibody, human IgG1)
chain: DIQLTQSPSSLSASVGDRVTITCRSSQTLLYSNNQKNYLAWYQQKPGKAPKLLISWAFTRKSGVPSRFSGSGSGTDFTLTISSLQPEDFATYYCQQYSNYPWTFGQGTKVEIKRGGGGSGGGGSGGGGSGGGGSEVQLVESGGGLVQPGGSLRLSCAASGYSFTGYFINWVRQAPGKGLEWVAHISSSYATSTYADSVKGRFTISVDTSKNTAYLQMNSLRAEDTAVYYCVRSGNYEEYAMDYWGQGTLVTVSSAAA[letters of human IgG1 Fc not shown]
The molecule B1 came in with a 相对亲和力 (EC50 of ChA21 / EC50 of the mutant) in the test with GST-EPI of 0.4.

B2: 人源化抗体H1-1 (antibody, human IgG1)
chain: DIVLSQSPDSLAVSLGERVTLNCKSSQTLLYSNNQKNYLAWYQQKPGQSPKLLISWAFTRKSGVPDRFSGSGSGTDFTLTISSVQAEDVAVYYCQQYSNYPWTFGAGTKLELKRGGGGSGGGGSGGGGSGGGGSQVQLVQSGAEVVKPGASVKISCKASGYSFTGYFINWVKQNPGQRLEWIGHISSSYATSTYNERFKGKATLTVDTSASTAYVELSSLRSEDTAVYFCVRSGNYEEYAMDYWGQGTLVTVSSAAA[letters of human IgG1 Fc not shown]
For the molecule B2, the 相对亲和力 (EC50 of ChA21 / EC50 of the mutant) with GST-EPI came to 0.95.

B3: 人源化抗体H1-V1 (antibody, human IgG1)
chain: DIVLTQSPDSLAVSLGERVTINCKSSQTLLYSNNQKNYLAWYQQKPGQSPKLLISWAFTRKSGVPDRFSGSGSGTDFTLTISSVQAEDVAVYYCQQYSNYPWTFGAGTKLEIKRGGGGSGGGGSGGGGSGGGGSQVQLVQSGAEVVKPGASVKISCKASGYSFTGYFINWVKQNPGQRLEWIGHISSSYATSTYNERFKGKATLTVDTSASTAYMELSSLRSEDTAVYYCVRSGNYEEYAMDYWGQGTLVTVSSAAA[letters of human IgG1 Fc not shown]
The molecule B3 gave a 相对亲和力 (EC50 of ChA21 / EC50 of the mutant) with GST-EPI of 0.92.

B4: 人源化抗体H1-2 (antibody, human IgG1)
chain: DIVLTQSPDSLAVSLGERVTINCKSSQTLLYSNNQKNYLAWYQQKPGQSPKLLISWAFTRKSGVPDRFSGSGSGTDFTLTISSVQAEDVAVYYCQQYSNYPWTFGAGTKLEIKRGGGGSGGGGSGGGGSGGGGSQVQLVQSGAEVVKPGASVKISCKASGYSFTGYFINWVKQNPGQRLEWIGHISSSYATSTYNQKFKGKATLTVDTSASTAYMELSSLRSEDTAVYYCVRSGNYEEYAMDYWGQGTLVTVSSAAA[letters of human IgG1 Fc not shown]
With B4, in the test with GST-EPI, the 相对亲和力 (EC50 of ChA21 / EC50 of the mutant) worked out at 0.93.

B5: 人源化抗体H1-2 (antibody, human IgG1)
chain: DIVLTQSPDSLAVSLGERVTINCKSSQTLLYSNNQKNYLAWYQQKPGQSPKLLISWAFTRKSGVPDRFSGSGSGTDFTLTISSVQAEDVAVYYCQQYSNYPWTFGAGTKLEIKRGGGGSGGGGSGGGGSGGGGSQVQLVQSGAEVVKPGASVKISCKASGYSFTGYFINWVKQNPGQRLEWIGHISSSYATSTYNQKFKGKATLTVDTSASTAYMELSSLRSEDTAVYYCVRSGNYEEYAMDYWGQGTLVTVSSAAA[human IgG1 Fc left out]
notes: scFv-Fc format; H1-V1 with Kabat H61 E>Q and H62 R>K; the SPR used the antibody at stated concentrations; also called 人源化突变体H1-2
Usually Kd stands for a measure of binding affinity in units of concentration. With B5, the Kd in test [1] is 10 nM.

The record behind these values is patent CN101928345A (USTC UNIV SCIENCE TECH CN, dated 2010).
